Experimental data taken from the supplement of paper PMC10369915.
The other results are listed elsewhere or left out. No stated cut-off is given here; in the data, active = 3.2 or more and inactive = the rest. The signal is at background level for most entries.

B1: MAPK3_HUMAN_210 (peptide)
chain: EYVATRWYRAPEIML
B2: ANDR_HUMAN_916 (peptide)
chain: SGKVKPIYFHTQGGG
B3: LY96_HUMAN_22 (peptide)
chain: FTEAQKQYWVCNSSD
B4: LRRK2_HUMAN_1402 (peptide)
chain: FAGREEFYSTHPHFM
B5: MARE3_HUMAN_124_YA (peptide)
chain: ANADGKDYNPLLARQ
B6: LSAMP_HUMAN_94 (peptide)
chain: EKRHSLEYSLRIQKV
B7: MDM2_HUMAN_405 (peptide)
chain: STSSSIIYSSQEDVK
B8: MANF_HUMAN_76 (peptide)
chain: GKENRLCYYIGATDD
B9: MAP2_HUMAN_67 (peptide)
chain: EHGSQGTYSNTKENG
B10: MERTK_HUMAN_754_YA (peptide)
chain: KIASGDAYRQGRIAK
B11: MERTK_HUMAN_753_YA (peptide)
chain: KKIASGDYARQGRIA
B12: MAGD1_HUMAN_92 (peptide)
chain: TKGPNGVYDFSQAHN
B13: MERTK_HUMAN_754 (peptide)
chain: KIYSGDYYRQGRIAK
B14: MATR3_HUMAN_202 (peptide)
chain: SLNPVLDYDHGSRSQ
B15: MAGH1_HUMAN_195 (peptide)
chain: SKDWPCNYDWDSDDD
B16: MARE1_HUMAN_124 (peptide)
chain: ANYDGKDYDPVAARQ
B17: MERTK_HUMAN_749 (peptide)
chain: FGLSKKIYSGDYYRQ
B18: MEMO1_HUMAN_210 (peptide)
chain: DESQGEIYRSIEHLD
B19: LTK_HUMAN_677_YA (peptide)
chain: DIARASAYRRGDRAL
B20: MET_HUMAN_1003 (peptide)
chain: VSNESVDYRATFPED
B21: MAGI2_HUMAN_362_YA (peptide)
chain: EKIDDPIYGTAAVDH
B22: MERTK_HUMAN_749_YA (peptide)
chain: FGLSKKIYSGDAARQ
B23: MAK_HUMAN_159_YA (peptide)
chain: SQPPATDYVSTRWAR
B24: MCM3_HUMAN_708_YA (peptide)
chain: DGDSADPYDFSDTEE
B25: MET_HUMAN_1235 (peptide)
chain: DMYDKEYYSVHNKTG
B26: MCM3_HUMAN_708 (peptide)
chain: DGDSYDPYDFSDTEE
B27: MARE2_HUMAN_167_YA (peptide)
chain: ANADGKEYDPVEARQ
B28: ANDR_HUMAN_535_YA (peptide)
chain: MDSASGPYGDMRLET
B29: MET_HUMAN_1230 (peptide)
chain: FGLARDMYDKEYYSV
B30: M2OM_HUMAN_102 (peptide)
chain: TTTRLGIYTVLFERL
B31: ANDR_HUMAN_365_YA (peptide)
chain: AAQSRDAYNFPLALA
B32: MARF1_HUMAN_699 (peptide)
chain: SGVAEPVYKTSQKKE
B33: LYN_HUMAN_508 (peptide)
chain: YTATEGQYQQQPGGG
B34: ANDR_HUMAN_552_YA (peptide)
chain: DHVLPIDYAFPPQKT
B35: LRRK1_HUMAN_971 (peptide)
chain: TQQTEEQYFQFLAKF
B36: ANDR_HUMAN_535 (peptide)
chain: MDSYSGPYGDMRLET

These binders were tested against SHP2 C-SH2 domain E139D (assay: enrichment score (SH2-bound / input frequency) (ratio); bacterial display of known human phosphotyrosine sites (pTyr-Var adds point mutants) read by sequencing; higher = stronger binding; tyrosines were phosphorylated by kinases first). Conditions: peptide library: Human pTyr.
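Further: displayed peptides selected on beads carrying the immobilized SH2 domain, with library peptides lacking any tyrosine serving as negative controls.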

Binder	enrichment score
B1	inactive: 1.34
B2	inactive: 2.59
B3	inactive: 1.19
B4	inactive: 0.657
B5	inactive: 0.701
B6	inactive: 2.13
B7	inactive: 0.62
B8	inactive: 1.3
B9	inactive: 0.81
B10	inactive: 1.44
B11	inactive: 0.95
B12	inactive: 0.813
B13	inactive: 1.92
B14	inactive: 0.72
B15	inactive: 1.06
B16	inactive: 0.659
B17	inactive: 1.34
B18	inactive: 0.882

Binder	enrichment score
B19	inactive: 0.701
B20	inactive: 0.705
B21	inactive: 0.725
B22	inactive: 0.73
B23	inactive: 1.22
B24	inactive: 0.989
B25	inactive: 0.702
B26	inactive: 1.4
B27	inactive: 0.658
B28	inactive: 0.513
B29	inactive: 1.02
B30	inactive: 2.5
B31	inactive: 0.727
B32	inactive: 0.723
B33	inactive: 0.522
B34	inactive: 0.564
B35	inactive: 1.58
B36	inactive: 0.622

What follows are binders tested against SHP2 C-SH2 domain wild-type in the same assay as above. Conditions: peptide library: Human pTyr.

Binder	enrichment score
B1	inactive: 1.12
B2	inactive: 3
B3	inactive: 1.16
B4	inactive: 0.695
B5	inactive: 0.641
B6	inactive: 1.83
B7	inactive: 0.616
B8	inactive: 1.4
B9	inactive: 0.696
B10	inactive: 1.46
B11	inactive: 0.724
B12	inactive: 0.513
B13	inactive: 1.45
B14	inactive: 0.51
B15	inactive: 1.05
B16	inactive: 0.552
B17	inactive: 1.27
B18	inactive: 0.722

Binder	enrichment score
B19	inactive: 0.703
B20	inactive: 0.621
B21	inactive: 0.7
B22	inactive: 0.641
B23	inactive: 0.945
B24	inactive: 0.924
B25	inactive: 0.858
B26	inactive: 1.16
B27	inactive: 0.704
B28	inactive: 0.507
B29	inactive: 0.891
B30	inactive: 2.43
B31	inactive: 0.639
B32	inactive: 0.855
B33	inactive: 0.486
B34	inactive: 0.427
B35	inactive: 1.42
B36	inactive: 0.481

What follows are binders tested against SHP2 N-SH2 domain L43F in the same assay as above. Conditions: peptide library: Human pTyr.

Binder	enrichment score
B1	inactive: 1.09
B2	inactive: 2.49
B3	inactive: 1.11
B4	inactive: 0.924
B5	inactive: 0.807
B6	inactive: 2.11
B7	inactive: 0.638
B8	inactive: 1.1
B9	inactive: 0.739
B10	inactive: 1.03
B11	inactive: 0.801
B12	inactive: 0.617
B13	inactive: 1.28
B14	inactive: 0.613
B15	inactive: 0.969
B16	inactive: 0.519
B17	inactive: 1.03
B18	inactive: 0.882

Binder	enrichment score
B19	inactive: 0.548
B20	inactive: 0.827
B21	inactive: 0.668
B22	inactive: 0.952
B23	inactive: 0.834
B24	inactive: 1.25
B25	inactive: 0.988
B26	inactive: 1.1
B27	inactive: 0.855
B28	inactive: 0.629
B29	inactive: 0.772
B30	inactive: 2.47
B31	inactive: 0.539
B32	inactive: 0.896
B33	inactive: 0.513
B34	inactive: 0.539
B35	inactive: 1.52
B36	inactive: 0.55

These binders were tested against SHP2 N-SH2 domain T42A in the same assay as above. Conditions: peptide library: Human pTyr.

Binder	enrichment score
B1	inactive: 1.09
B2	inactive: 2.38
B3	inactive: 1.16
B4	inactive: 0.543
B5	inactive: 0.699
B6	inactive: 1.95
B7	inactive: 0.459
B8	inactive: 1.47
B9	inactive: 1.05
B10	inactive: 1.05
B11	inactive: 0.888
B12	inactive: 0.64
B13	inactive: 1.13
B14	inactive: 0.538
B15	inactive: 0.966
B16	inactive: 0.54
B17	inactive: 1.02
B18	inactive: 0.749

Binder	enrichment score
B19	inactive: 0.732
B20	inactive: 0.673
B21	inactive: 0.662
B22	inactive: 1.01
B23	inactive: 0.887
B24	inactive: 1.2
B25	inactive: 0.858
B26	inactive: 1.15
B27	inactive: 0.643
B28	inactive: 0.466
B29	inactive: 0.794
B30	inactive: 2.2
B31	inactive: 0.614
B32	inactive: 0.686
B33	inactive: 0.671
B34	inactive: 0.566
B35	inactive: 2.08
B36	inactive: 0.572

What follows are binders tested against SHP2 N-SH2 domain T52S in the same assay as above. Conditions: peptide library: Human pTyr.

Binder	enrichment score
B1	inactive: 1.09
B2	inactive: 3.01
B3	inactive: 1.29
B4	inactive: 0.658
B5	inactive: 0.521
B6	inactive: 2.22
B7	inactive: 0.663
B8	inactive: 1.47
B9	inactive: 0.856
B10	inactive: 1.07
B11	inactive: 0.974
B12	inactive: 0.743
B13	inactive: 1.41
B14	inactive: 0.673
B15	inactive: 1.15
B16	inactive: 0.494
B17	inactive: 1.59
B18	inactive: 0.854

Binder	enrichment score
B19	inactive: 0.794
B20	inactive: 0.722
B21	inactive: 0.726
B22	inactive: 0.994
B23	inactive: 1.1
B24	inactive: 1.49
B25	inactive: 0.867
B26	inactive: 1.27
B27	inactive: 0.78
B28	inactive: 0.481
B29	inactive: 0.975
B30	inactive: 2.74
B31	inactive: 0.613
B32	inactive: 1.02
B33	inactive: 0.492
B34	inactive: 0.615
B35	inactive: 1.76
B36	inactive: 0.537

Each binder was assayed against SHP2 N-SH2 domain wild-type in the same assay as above. Conditions: peptide library: Human pTyr.

Binder	enrichment score
B1	inactive: 1.29
B2	active: 3.88
B3	inactive: 1.31
B4	inactive: 0.583
B5	inactive: 0.565
B6	inactive: 2.5
B7	inactive: 0.558
B8	inactive: 1.88
B9	inactive: 0.733
B10	inactive: 1.38
B11	inactive: 1.25
B12	inactive: 0.874
B13	inactive: 1.24
B14	inactive: 0.647
B15	inactive: 1.41
B16	inactive: 0.563
B17	inactive: 1.08
B18	inactive: 0.896

Binder	enrichment score
B19	inactive: 0.673
B20	inactive: 0.858
B21	inactive: 0.785
B22	inactive: 0.925
B23	inactive: 1.11
B24	inactive: 1.6
B25	inactive: 0.785
B26	inactive: 1.77
B27	inactive: 0.703
B28	inactive: 0.507
B29	inactive: 1.14
B30	active: 3.24
B31	inactive: 0.572
B32	inactive: 1
B33	inactive: 0.634
B34	inactive: 0.589
B35	inactive: 1.64
B36	inactive: 0.442
